Literature values, collected in paper PMC11006913.
The other results are listed elsewhere or left out.

Key:
Settings in all cases: PBM; conditions not shown; double strand, one strand shown; scale: upbm affinity estimate (log intensity, higher = more binding, comparable within an allelic series)
[1] = biological target: HOXD13 I297V (Homo sapiens) (UniProt P35453)
[2] = biological target: HOXD13 I322L (Homo sapiens) (UniProt P35453)
[3] = biological target: HOXD13 N298S (Homo sapiens) (UniProt P35453)
[4] = biological target: HOXD13 Q325K (Homo sapiens) (UniProt P35453)
[5] = biological target: HOXD13 Q325R (Homo sapiens) (UniProt P35453)
[6] = biological target: HOXD13 R306W (Homo sapiens) (UniProt P35453)
[7] = biological target: HOXD13 S316C (Homo sapiens) (UniProt P35453)

Sequence	binding signal [1]	binding signal [2]	binding signal [3]	binding signal [4]	binding signal [5]	binding signal [6]	binding signal [7]
CTTGTAAA [8-mer CTTGTAAA]	12.9	12.9	13	10.2	11.5	12	12.8
CCATAAAA [8-mer CCATAAAA]	12.8	11.6	13.1	10.6	11.4	12.2	12.7
CGAGGGTC [8-mer CGAGGGTC]	9.24	9.3	9.41	9.08	9.33	9.23	9.32
CCCATAAA [8-mer CCCATAAA]	12.9	11.5	13.2	10.4	11.2	12.1	12.8
CGGAGGGA [8-mer CGGAGGGA]	9.35	9.17	9.27	9.45	9.4	9.41	9.37
CCGGCCTC [8-mer CCGGCCTC]	9.41	9.36	9.42	9.39	9.36	9.28	9.34
ACGGTCCC [8-mer ACGGTCCC]	9.37	9.34	9.25	9.28	9.39	9.27	9.37
GTCATAAA [8-mer GTCATAAA]	12.5	11.5	12.9	11.3	11.7	11.7	12.5
TTTATAAA [8-mer TTTATAAA]	11.6	10.9	11.7	12	11.3	11.3	11.4
CCCATTAA [8-mer CCCATTAA]	12.3	11.5	12.5	10.6	11.1	11.3	12
CCTGTAAA [8-mer CCTGTAAA]	12.2	12.1	12.4	10.2	10.5	11.2	11.9
GGGGGGGA [8-mer GGGGGGGA]	9.13	8.94	9.06	9.59	9.12	9.12	9.11
ATTAATAG [8-mer ATTAATAG]	12.4	11.6	12.6	11.6	11.8	11.9	12.2
GACGCTGC [8-mer GACGCTGC]	9.32	9.37	9.14	9.26	9.41	9.34	9.32
TGTAGTAA [8-mer TGTAGTAA]	11.5	11.3	11.7	10.7	11	10.8	11.4
ATTTAATA [8-mer ATTTAATA]	12.4	11.9	12.7	12.1	12.3	12	12.3

Sequence	binding signal [1]	binding signal [2]	binding signal [3]	binding signal [4]	binding signal [5]	binding signal [6]	binding signal [7]
CTCCAGAG [8-mer CTCCAGAG]	9.46	9.42	9.44	9.5	9.39	9.45	9.51
CTGTAAAA [8-mer CTGTAAAA]	12.3	12.2	12.4	10.3	10.6	11.4	12
CTATTAAA [8-mer CTATTAAA]	12.6	12	12.8	11.4	11.8	12.1	12.4
ACTATAAA [8-mer ACTATAAA]	12.6	11.6	12.8	11.6	11.8	11.9	12.4
CGGACCCC [8-mer CGGACCCC]	9.45	9.44	9.37	9.25	9.32	9.31	9.36
CTCGTAAA [8-mer CTCGTAAA]	13.3	13.4	13.6	10.3	11.9	12.6	13.3
GACCGAGC [8-mer GACCGAGC]	9.43	9.53	9.48	9.44	9.42	9.43	9.54
ACCATAAA [8-mer ACCATAAA]	12.5	11.5	12.7	10.7	11.2	11.6	12.4
CAATAAAG [8-mer CAATAAAG]	12.4	11.2	12.7	10.7	11.5	11.7	12.4
AGGGCTGG [8-mer AGGGCTGG]	9.6	9.54	9.42	9.58	9.52	9.48	9.51
CCTCCGGA [8-mer CCTCCGGA]	9.53	9.34	9.44	9.52	9.29	9.44	9.41
GCTTGGCC [8-mer GCTTGGCC]	9.54	9.27	9.2	9.37	9.29	9.38	9.29
CCAGGGGC [8-mer CCAGGGGC]	9.26	9.07	9.29	9.33	9.15	9.25	9.13
ACAATAAA [8-mer ACAATAAA]	12.5	11.3	12.8	11.1	11.7	11.9	12.5
GAGGAGCC [8-mer GAGGAGCC]	9.57	9.51	9.57	9.29	9.36	9.53	9.6
